In US20020193351A1, “Fungicidal and bactericidal compositions for plants containing phosphonate and phosphate salts, metal chelates, and derivatives thereof” (priority 1996, published 2002):

Experiments:
[1] = system: greasy spot, Mycosphaerella citri; details: for % REMAINING LEAVES WITH GREASY SPOT / DEFOLIATION: dilute spray in July at 700 gpa; for % REMAINING LEAVES WITH GREASY SPOT: examined in February; for DEFOLIATION: leaves counted in February; for Effectiveness against greasy spot: Example 4, comparison of treatments at the rates of the table
Method: In the present example, […] plants (Citrus paradisi ‘Marsh’) were tested with various fungicides to determine the effectiveness in eliminating greasy spot, Mycosphaerella citri.
Spray treatments were applied dilute (applied to point of run off) by handgun in July to 10-foot high trees at a rate equivalent to 700 gpa. Treatments were replicated on 8 single tree plots in a RCB design. Groups of 15 shoots on each of the east/west and east side of each tree were tagged and the initial number of leaves was recorded. In February, remaining leaves were counted and examined for greasy spot.

[2] = system: Melanose (Diaporthe citri); details: fruit sampled in July
[3] = system: Citrus Greasy Spot (Mycosphaerella citri); details: for Citrus Greasy Spot repression, verdict: Example 1, comment on the table; for AVE % INFECTION 2/10/88: mid-summer, Valencia orange, rated seven months later

| Molecule | % REMAINING LEAVES WITH GREASY SPOT ([1]; 0.75 lb./100 gallons) [a %] | DEFOLIATION ([1]; 0.75 lb./100 gallons) [a] | Effectiveness against greasy spot [1] | % INFECTION (FRUIT) ([2]; 0.5 LB AI/100 gallons, timing June) [%] | Citrus Greasy Spot repression, verdict [3] | AVE % INFECTION 2/10/88 ([3]; rate 50 gram (gm) AI/100 gallons per acre) [%] | AVE % INFECTION 2/10/88 ([3]; rate 100 gm AI/100 gallons per acre) [%] | % INFECTION (FRUIT) ([2]; 0.2 LB AI/100 gallons, timing June) [%] | % INFECTION (FRUIT) ([2]; 0.2 LB AI/100 gallons, timing May-June) [%] | % INFECTION (FRUIT) ([2]; 0.2 LB AI/100 gallons, timing May) [%] | % INFECTION (FRUIT) ([2]; 0.4 LB AI/100 gallons, timing May-June) [%] | % INFECTION (FRUIT) ([2]; 0.4 LB AI/100 gallons, timing May) [%] | % INFECTION (FRUIT) ([2]; 0.8 LB AI/100 gallons, timing May-June) [%] | % INFECTION (FRUIT) ([2]; 0.8 LB AI/100 gallons, timing May) [%] | % REMAINING LEAVES WITH GREASY SPOT ([1]; 1.5 gal./100 gallons) [a %] | DEFOLIATION ([1]; 1.5 gal./100 gallons) [a] | AVE % INFECTION 2/10/88 ([3]; rate 0.2 lbs. AI/100 gallons per acre) [%] |
| --- | --- | --- | --- | --- | --- | --- | --- | --- | --- | --- | --- | --- | --- | --- | --- | --- | --- |
| O=S(=O)([O-])[O-].[Cu+2].[Cu+2].[Cu+2].[Cu+2].[OH-].[OH-].[OH-].[OH-].[OH-].[OH-] [Tribasic copper sulfate, reference compound] | 20.1 | 1.9 | no significant differences in effectiveness |  |  |  |  |  |  |  |  |  |  |  |  |  |  |
| CC1COC(Cn2cncn2)(c2ccc(Oc3ccc(Cl)cc3)cc2Cl)O1 (stereo not shown) [Difenconazole, 1-2[2-[4-(4-chlorophenoxy)-2-chlorophenyl-(4-methyl-1,3-dioxolan-2-l)-methyl]]-1H-1 ,2,4-triazole, reference compound] |  |  |  | 4 | desirable fungus repression | 1.56 | 1.0 |  |  |  |  |  |  |  |  |  |  |
| Sodium cupric ethylenediamine-di-o-hydroxyphenylacetic acid [Cu-EDDHA] |  |  | no significant differences in effectiveness |  | excellent results |  |  | 14 | 11 | 9 | 15 | 13 | 29 | 21 | 12.0 | 0.8 | 2.5 |

Like-named read-outs stand apart in the source and are kept apart here.
